The source of these data is publication PMC4336329 (PLoS ONE, 2015).

SMILES strings stand for the structures. Among all 310,000 compounds or so, about 2,200 (0.71%) showed an effect of 50% or more. Effects have a minus sign here. The list shows a part of the results.

For this test, the target named is human ether-à-go-go-related gene (hERG) potassium channel (human, UniProt Q12809). The experiment in a line: primary screen, population patch clamp on CHO cells stably expressing hERG.
Sequence of human ether-à-go-go-related gene (hERG) potassium channel (Q12809 whole entry, looked up): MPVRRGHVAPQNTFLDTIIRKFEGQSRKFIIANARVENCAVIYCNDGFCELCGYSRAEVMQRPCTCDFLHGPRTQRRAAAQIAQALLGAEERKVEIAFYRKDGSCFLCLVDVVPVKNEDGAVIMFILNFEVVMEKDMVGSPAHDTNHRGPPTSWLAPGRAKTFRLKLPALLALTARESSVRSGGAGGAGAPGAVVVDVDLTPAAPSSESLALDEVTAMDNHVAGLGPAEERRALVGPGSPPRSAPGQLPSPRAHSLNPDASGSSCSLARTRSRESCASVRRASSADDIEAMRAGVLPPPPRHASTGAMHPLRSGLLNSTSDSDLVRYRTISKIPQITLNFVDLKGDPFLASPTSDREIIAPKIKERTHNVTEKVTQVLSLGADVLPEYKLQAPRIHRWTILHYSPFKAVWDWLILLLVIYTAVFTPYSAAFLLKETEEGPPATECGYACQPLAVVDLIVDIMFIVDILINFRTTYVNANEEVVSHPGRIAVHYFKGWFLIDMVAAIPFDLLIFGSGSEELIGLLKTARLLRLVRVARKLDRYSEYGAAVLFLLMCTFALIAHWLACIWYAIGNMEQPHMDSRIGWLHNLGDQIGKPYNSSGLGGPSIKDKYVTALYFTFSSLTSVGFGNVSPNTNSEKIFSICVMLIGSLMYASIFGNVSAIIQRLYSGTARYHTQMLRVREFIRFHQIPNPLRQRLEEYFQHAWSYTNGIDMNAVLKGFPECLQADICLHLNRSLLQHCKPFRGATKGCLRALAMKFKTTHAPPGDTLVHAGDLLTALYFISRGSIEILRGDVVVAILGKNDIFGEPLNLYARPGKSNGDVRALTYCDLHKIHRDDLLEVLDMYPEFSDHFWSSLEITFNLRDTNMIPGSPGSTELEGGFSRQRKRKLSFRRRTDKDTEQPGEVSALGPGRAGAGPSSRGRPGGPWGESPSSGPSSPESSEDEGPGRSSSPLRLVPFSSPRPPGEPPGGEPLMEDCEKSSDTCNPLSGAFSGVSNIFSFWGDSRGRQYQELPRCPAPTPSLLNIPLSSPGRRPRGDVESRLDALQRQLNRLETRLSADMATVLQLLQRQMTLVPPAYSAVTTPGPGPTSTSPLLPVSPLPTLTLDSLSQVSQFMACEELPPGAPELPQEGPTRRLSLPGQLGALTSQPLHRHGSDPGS
In the case of `COC(=O)C(CCSC)NC(=O)c1cccc([N+](=O)[O-])c1` (stereo not drawn), the “hERG current change (%, negative = inhibition) at 1uM” value is recorded as -0.729%.

Turning to `Cc1ccc(-n2cc3c(=O)n(C)c(=O)n(C)c3c2)cc1C`, the “hERG current change (%, negative = inhibition) at 1uM” value turned out to be 5.75%.

On to `NNC(=O)c1cccc(Cn2cc(Br)c([N+](=O)[O-])n2)c1`, for which the “hERG current change (%, negative = inhibition) at 1uM” value turned out to be 7.76%.

For `O=[N+]([O-])c1ccccc1/C=N/OCc1ccccc1`, the “hERG current change (%, negative = inhibition) at 1uM” value stood at 22.3%.

As for `CCOC(=O)C1(Cc2ccc(OC)cc2)CCN(C(=O)c2cccc3nccnc23)CC1`, the “hERG current change (%, negative = inhibition) at 1uM” value amounted to 2.3%.

Consider `Cc1nc2ccc(NC(=O)Cc3cccs3)cc2s1`, for which the “hERG current change (%, negative = inhibition) at 1uM” value was 15.8%.

In the case of `CC1CC(C)CN(CC(O)COCCOc2ccc(Br)cc2)C1.Cl` (stereo not drawn), the “hERG current change (%, negative = inhibition) at 1uM” value was -32.3%.

As to `COC(=O)c1sccc1-c1ccc(C(N)=O)o1`, the “hERG current change (%, negative = inhibition) at 1uM” value was found to be 12.4%.

For `Cc1cc(NC(=O)c2ccc(-c3ccc(F)c(Cl)c3)o2)no1`, the “hERG current change (%, negative = inhibition) at 1uM” value is on record as 3.14%.

With `CC(C)(C)c1nnc(NC(=O)Cc2ccccc2[N+](=O)[O-])s1`, the “hERG current change (%, negative = inhibition) at 1uM” value was -5.93%.

For the molecule `O=C(Cn1cnc2c(nnn2Cc2ccccc2)c1=O)c1ccccc1`, the “hERG current change (%, negative = inhibition) at 1uM” value is listed as -1.44%.

Regarding `N#CCC(CNc1ncc(C(F)(F)F)cc1Cl)OC(=O)c1cccc([N+](=O)[O-])c1` (stereo not drawn), the “hERG current change (%, negative = inhibition) at 1uM” value is reported as -21%.

In the case of `O=C(CC1C(=O)NCCN1C(=O)Nc1ccc(F)cc1F)Nc1cc(Cl)ccc1Cl` (stereo not drawn), the “hERG current change (%, negative = inhibition) at 1uM” value worked out at 2.43%.

As to `CCOC(=O)N1CCN(C(=O)CN2C(=O)NC(C)(c3ccc4ccccc4c3)C2=O)CC1` (stereo not drawn), the “hERG current change (%, negative = inhibition) at 1uM” value is listed as -0.366%.

In the case of `Cc1cn(CCOc2ccc(Cl)cc2)c(=O)[nH]c1=O`, the “hERG current change (%, negative = inhibition) at 1uM” value is 12.6%.

Consider `O=C(O)c1c2c(nc3ccc(S(=O)(=O)N4CCC(C(=O)NCc5ccccc5Cl)CC4)cc13)CCCC2`, for which the “hERG current change (%, negative = inhibition) at 1uM” value is 8.46%.

On to `COc1ccc(C(CC(=O)NCCN2CCOCC2)NS(=O)(=O)c2ccc(C)cc2)cc1` (stereo not drawn), for which the “hERG current change (%, negative = inhibition) at 1uM” value was found to be 11.7%.

Take `CCOC(=O)N1CCN(C(=O)c2ccc3c(c2)NC(=O)/C(=C/c2ccccc2)S3)CC1`: the “hERG current change (%, negative = inhibition) at 1uM” value worked out at 38.8%.

With `Cc1ccc(S(=O)(=O)N(Cc2ccccc2)Cc2ccco2)cc1`, the “hERG current change (%, negative = inhibition) at 1uM” value was determined as 10.7%.

Take `CCc1nn(C(CC)C(=O)NCc2cccc(OC)c2)c(=O)c2cc3occc3n12` (stereo not drawn): the “hERG current change (%, negative = inhibition) at 1uM” value is given as 6.54%.

Turning to `CCc1noc(C)c1C(=O)NCCc1ccc(Cl)cc1`, the “hERG current change (%, negative = inhibition) at 1uM” value is 14%.

For `N#Cc1ccccc1OCC(=O)Nc1ccc(N2CCOCC2)cc1N1CCOCC1`, the “hERG current change (%, negative = inhibition) at 1uM” value stood at 8.66%.

For `CCc1cc2c(-c3ccccc3)cc(=O)oc2cc1OCC(=O)NCC1CCC(C(=O)O)CC1` (stereo not drawn), the “hERG current change (%, negative = inhibition) at 1uM” value stood at 14.6%.

Take `Nc1nc2c(F)c(F)c(F)cc2s1`: the “hERG current change (%, negative = inhibition) at 1uM” value was 1.74%.

Regarding `Cc1ccc(C)c(NC(=S)Nc2cccnc2)c1`, the “hERG current change (%, negative = inhibition) at 1uM” value was 7%.

For `CCCc1ccc(-c2cc(C(=O)N3CCN(c4ccccn4)CC3)c3ccccc3n2)cc1`, the “hERG current change (%, negative = inhibition) at 1uM” value turned out to be 13.3%.

In the case of `CCCOc1ccccc1NC(=O)/C=C/C(N)=O`, the “hERG current change (%, negative = inhibition) at 1uM” value was found to be 11.2%.

On to `CC1CN=C(Nc2cccc3ccccc23)S1` (stereo not drawn), for which the “hERG current change (%, negative = inhibition) at 1uM” value turned out to be 6.56%.

As for `COCCNC(=O)CN(C(=O)Cn1nnc2ccccc21)c1ccc(C)cc1`, the “hERG current change (%, negative = inhibition) at 1uM” value stood at 25.2%.

For `Cl.O=C(CCc1ccccc1)N1CCN(CCO)CC1`, the “hERG current change (%, negative = inhibition) at 1uM” value amounted to 9.43%.

For `CC1(C)c2cc(O)ccc2OC1N1CCOCC1` (stereo not drawn), the “hERG current change (%, negative = inhibition) at 1uM” value is given as 8.74%.

As for `O=C(CSc1nc2[nH]ncc2c(=O)[nH]1)Nc1nccs1`, the “hERG current change (%, negative = inhibition) at 1uM” value is given as 6.1%.

Turning to `COc1ccc(C(=O)N/N=C\c2coc3ccc(C)cc3c2=O)cc1`, the “hERG current change (%, negative = inhibition) at 1uM” value is 9.26%.

Turning to `CCOC(=O)C1(CCOC)CCN(Cc2ccc(C(=O)OC)cc2)CC1`, the “hERG current change (%, negative = inhibition) at 1uM” value is recorded as 0.201%.

Turning to `Fc1ccc2nc(Nc3nc4c(s3)CCCC4)sc2c1`, the “hERG current change (%, negative = inhibition) at 1uM” value worked out at 5.91%.

For `Cc1ccccc1[C@@H](NC(=O)OC(C)(C)C)C(=O)OC(C)(C)C`, the “hERG current change (%, negative = inhibition) at 1uM” value was determined as 8.98%.

In the case of `O=C(NCc1ccco1)C1CCCCN1S(=O)(=O)c1ccc(F)cc1` (stereo not drawn), the “hERG current change (%, negative = inhibition) at 1uM” value is reported as 10.4%.

`N#CC1=C(N)Oc2c(c(=O)sc3ccccc23)C1c1cccnc1` (stereo not drawn): the “hERG current change (%, negative = inhibition) at 1uM” value stood at 10.4%.

In the case of `O=C(COc1ccc2ccc(=O)oc2c1)NCCc1c[nH]c2ccc(F)cc12`, the “hERG current change (%, negative = inhibition) at 1uM” value was 12.5%.

Turning to `CN1CCN(CCc2nc3cc(NC(=O)COc4ccccc4)ccc3n2C)CC1`, the “hERG current change (%, negative = inhibition) at 1uM” value was -13.2%.

As to `Cc1[nH]c(C)c(S(=O)(=O)N2CCN(c3ccccc3)CC2)c1C(=O)N1CCCCC1`, the “hERG current change (%, negative = inhibition) at 1uM” value is reported as -5.2%.

Turning to `CC1CCN(C(=O)COC(=O)CSc2ccc(C(N)=O)cc2[N+](=O)[O-])CC1`, the “hERG current change (%, negative = inhibition) at 1uM” value was determined as 10.2%.

As to `COc1ccc(CCNS(=O)(=O)c2ccc(Br)cc2)cc1OC`, the “hERG current change (%, negative = inhibition) at 1uM” value is given as 10.5%.

Take `COc1ccc(NC(=S)N(CCN2CCOCC2)Cc2ccccc2F)cc1`: the “hERG current change (%, negative = inhibition) at 1uM” value stood at 4.38%.

Turning to `Cc1cccc(NC(=O)CNC(=O)c2ccco2)n1`, the “hERG current change (%, negative = inhibition) at 1uM” value turned out to be 7.79%.
